Experimental data: PubChem BioAssay AID1159614 (National Center for Advancing Translational Sciences (NCATS), 2016)
Among all 45,000 compounds or so, about 65 (0.1%) were called active. Calls come from the whole dose curve; as a rule, active = well fitted activation curve with a large enough effect; inconclusive = small, poorly fitted or top-dose-only effect; inactive = no such curve, though single readings can be large or run the other way. The list shows a part of the results.

molecular target: Galactocerebrosidase (Homo sapiens) (UniProt P54803); assay: A Novel Cell-Based Assay to Identify Small Molecules for B -Galactocerebrosidase; conditions: 145M-Twi-hGALC-G270D cells (Twitcher mouse brain line with human GALC G270D), HMU-beta-Gal fluorescence, 48 h; series mostly up to 57.5 µM; activation: at the top concentration; note: 0% is about no effect; nearly all actives have a fitted effect of over 65% in size
How it was run: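 Brain-derived Twitcher mouse 145M-Twi cells stably expressing human GALC-G270D or wild-type GALC, treated live, then residual GALC activity read by fluorescence of HMU-b-Gal substrate (0.1 mM final) in citrate-phosphate buffer pH 5.2 with sodium taurocholate. Signal increase indicates enhancement.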

Chain of UniProt P54803 (P54803 whole entry, looked up): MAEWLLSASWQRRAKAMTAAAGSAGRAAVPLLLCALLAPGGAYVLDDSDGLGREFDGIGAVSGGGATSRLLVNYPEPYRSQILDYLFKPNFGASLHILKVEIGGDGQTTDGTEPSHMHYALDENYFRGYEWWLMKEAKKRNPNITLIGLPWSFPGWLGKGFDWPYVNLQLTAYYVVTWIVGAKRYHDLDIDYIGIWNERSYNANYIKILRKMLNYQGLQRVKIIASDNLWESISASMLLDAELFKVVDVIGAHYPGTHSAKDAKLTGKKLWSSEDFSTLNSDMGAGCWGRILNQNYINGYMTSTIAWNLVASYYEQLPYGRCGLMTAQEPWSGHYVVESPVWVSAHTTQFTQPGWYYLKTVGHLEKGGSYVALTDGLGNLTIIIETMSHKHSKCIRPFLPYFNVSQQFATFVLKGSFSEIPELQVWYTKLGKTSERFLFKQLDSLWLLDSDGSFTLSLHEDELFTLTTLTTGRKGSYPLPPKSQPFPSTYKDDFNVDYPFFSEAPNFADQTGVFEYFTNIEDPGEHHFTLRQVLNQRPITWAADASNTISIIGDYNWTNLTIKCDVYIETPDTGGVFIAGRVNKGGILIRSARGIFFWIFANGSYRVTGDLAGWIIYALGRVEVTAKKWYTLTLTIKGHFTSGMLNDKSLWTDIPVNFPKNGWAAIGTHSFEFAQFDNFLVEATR

activation, inactive:
Cc1cccc(-c2nc(SCCCOc3ccccc3Cl)n3[nH]c(=O)cc3n2)c1 -25.8%
O=C(Nc1ccc(F)c(Cl)c1)N1CCN(C(=O)c2nsc3ccccc23)CC1 -6.18%
Cc1cc(C)cc(-n2c(SCC(=O)N3CCc4ccccc43)nc3c([nH]c4ccccc43)c2=O)c1 -8.03%
CC(=O)Nc1ccc(Nc2ncnc3c2c(-c2ccccc2)cn3-c2ccccc2)cc1 -17.4%
CCN1c2ccccc2-n2cccc2C12CCN(C(=O)Nc1ccccc1C(F)(F)F)CC2 2.19%
C#CCN(C)Cc1ccccc1 -16.5%
CCOc1ccc(CNC(=O)Cn2c(=O)c3cccn3c3ccc(F)cc32)cc1 -1.56%
CCOc1ccc(OCC)c(NC(=O)C2CCCN(S(=O)(=O)c3ccc4c(c3)oc(=O)n4C)C2)c1 (configuration not stated) -10.6%
CCOc1ccc2nc(N3CCN(C(=O)CS(=O)(=O)c4ccc(F)cc4)CC3)sc2c1 -5.2%
CCn1c(C(=O)N2CCC(C(=O)N3CCN(c4cccc(C)c4C)CC3)CC2)cc2sccc21 -5.3%
O=C(C1CCCN(S(=O)(=O)c2cccs2)C1)N1CCN(c2cccc(Cl)c2)CC1 (configuration not stated) -13.8%
Cc1ccc(C)c(N2CCN(c3ncnc4c3nc3n4CCCCC3)CC2)c1 -5.2%
O=c1c2cc3c(cc2nc2sc(Nc4ccc(F)cc4F)nn12)OCO3 0.801%
Cc1ccc(NC(=O)Cn2nnnc2-c2ccccc2N)cc1 -14.5%
Cn1nc(C(=O)N2CCN(c3ccc(Cl)cc3)CC2)c2c1-c1ccccc1SC2 -8.87%
CCOc1ccc(C(=O)NCC(c2ccco2)S(=O)(=O)c2ccc(C)cc2)cc1 (configuration not stated) -0.185%
COc1ccc(Cl)cc1NC(=O)N1CCC(CN2CCc3ccccc3C2)CC1 -2.64%
COc1cccc(CNC(=O)CSc2ccc(-c3sc(-c4ccccc4)nc3C)nn2)c1 -7.62%
c1ccc(CNc2nc3ccccc3c3nc(-c4ccccc4)nn23)cc1 -27%
Cn1c(=O)c2nc(SCC(=O)Nc3cc(Cl)ccc3Cl)n(C)c2n(C)c1=O -16.4%
NC(=O)CSc1nc2c(oc3ccccc32)c(=O)n1-c1ccccc1F -13.4%
Cc1ccc2c(=O)cc(C(=O)Nc3sc4c(c3C(=O)NCc3ccco3)CCC4)oc2c1C -16.5%
COc1ccc(NS(=O)(=O)c2cc3[nH]c(=O)c(=O)[nH]c3cc2C)cc1OC -2.49%
CCc1ccc(-n2nc3cc(C)c(NC(=O)c4cc(Cl)ccc4OC)cc3n2)cc1 -2.96%
Cc1ccc(NC(=O)c2ccc(NC(=O)N3CCSc4ncccc43)cc2)cc1Cl -0.663%
O=C(Cn1cc(S(=O)(=O)Cc2ccc(F)cc2)c2ccccc21)NCCc1ccccc1 -39.9%
Cc1ccc(CNC(=O)Cn2ncc3c(C)n(Cc4ccc(Cl)cc4)c(C)c3c2=O)cc1 -7.87%
COc1ccccc1Nc1cc(C)nc2nc(-c3ccccc3)nn12 -13.9%
CCCN(C(=O)Cn1ncc2c(=O)oc3ccccc3c21)c1cccc(C)c1 -18.1%
Cc1ccc(NC(=O)c2c(N3CCCC3=O)c3cc(C)ccc3n2C)c(C)c1 -19.8%
CCC(C)NC(=O)Cn1c(=O)n(Cc2ccc(C(=O)NCCCOC)cc2)c(=O)c2ccccc21 (configuration not stated) 1.49%
COc1ccc(Nc2cc(C(=O)NCCc3ccccc3)c3ccccc3n2)cc1OC -11.5%
COc1ccc(OCCn2c(C3CC(=O)N(c4ccc(F)cc4)C3)nc3ccccc32)cc1 (configuration not stated) 17.4%
CSc1ccc(CNCc2c(C(=O)O)c(C)n(Cc3ccc(F)cc3Cl)c2C)cc1 -16.1%
COC(=O)c1c(NC(=O)c2ccc(S(=O)(=O)N3CCCC(C)C3)cc2)sc2c1CCN(C(C)C)C2 (configuration not stated) -23.8%
CC(C)c1ccc(NC(=O)CSc2ncc3c(n2)-c2ccccc2N(C)S3(=O)=O)cc1 -8.48%
Cc1ccc(Cl)c2sc(N3CCN(C(=O)C4CC4)CC3)nc12 -0.561%
COc1cccc(N2CCN(C(=O)C3CCCN(S(=O)(=O)c4ccc(Br)s4)C3)CC2)c1 (configuration not stated) -11.3%
Cc1c(NC(=O)c2nc3ccccc3n(C)c2=O)cccc1[N+](=O)[O-] -7.16%
Cc1ccccc1CNC(=O)c1c(C)oc2c1C1=NCCN1C=N2 -10.7%
Cc1ccccc1Cn1cc(S(=O)(=O)c2ccc(Cl)cc2)c(=O)c2cc3c(cc21)OCO3 -10.2%
Cc1ccc(Cn2c(=O)n(CCCCC(=O)NCCc3ccc(Cl)cc3)c(=O)c3ccccc32)cc1 -7.31%
CCc1nnc2c(Nc3ccc(Br)c(C)c3)nc3ccccc3n12 -7.04%
COc1ccc(S(=O)(=O)N2CCN(c3ccc(F)cc3)CC2)cc1-c1noc(C)n1 -17.9%
Cc1cc(C)cc(OCC(=O)NCC(c2ccc(Cl)cc2)N2CCCCC2)c1 (configuration not stated) -14.6%
Cn1c(=O)c2c(n3c4ccccc4nc13)NC(=O)CC2c1ccccc1F (configuration not stated) -30.4%
CC1CCc2c(sc3nnn(Cc4ccc(F)cc4)c(=O)c23)C1 (configuration not stated) -5.62%
COc1ccc(NC(=O)CSc2ncc(-c3ccc(Cl)cc3)[nH]2)cc1OC -8.86%
CCc1ccc(NCc2cc3cc4c(cc3n(CC(=O)Nc3ccc(Cl)cc3)c2=O)OCO4)cc1 29.2%
COc1ccccc1CCNC(=O)c1ccc2c(c1)c(C)c(C)n2C 1.66%
CCN(CC)S(=O)(=O)c1ccc2c(c1)N(CC(=O)Nc1c(C)cccc1C)C(=O)CO2 -5.22%
CCc1ccccc1NC(=O)Cn1nnc(C(=O)OC)c1C(=O)OC -19.3%
COc1ccc(OC)c(N(CC(=O)NCc2ccccc2)S(=O)(=O)c2ccccc2)c1 -22.3%
CCOC(=O)c1sc2ccccc2c1S(=O)(=O)Nc1ccc(N(C)C)cc1 -32%
CCOC(=O)c1sc(N2C(=O)c3oc4cc(C)c(C)cc4c(=O)c3C2c2cccc(O)c2)nc1C (configuration not stated) -10.6%
COC(=O)c1cc(NC(=O)CCc2c(C)nc3c4c(C)cc(C)nc4nn3c2C)cc(C(=O)OC)c1 -13.4%
Cc1cc(S(=O)(=O)Nc2cccc(C(=O)O)c2)c(C)c(S(=O)(=O)c2ccccc2)c1 -2.28%
COc1ccc(-c2nc(C)c(CCNC(=O)C(=O)Nc3cccc(F)c3)s2)cc1OC -1.33%
COc1ccccc1NC(=O)CCCOc1cc(=O)n(C)c2ccccc12 -17.9%
CCc1ccccc1NC(=O)c1cc(S(=O)(=O)N(CC)c2ccccc2)ccc1F -3.07%
Oc1c(I)cc(I)c2cccnc12 -16.1%
CC1CCN(c2nc3c(S(=O)(=O)c4ccccc4)nnn3c3ccsc23)CC1 13.2%
CCOC(=O)CCn1nc(-c2ccc(C)cc2)c2ccccc2c1=O -11.9%
Cc1ccc(C)c(Cn2c(=O)n(Cc3ccccc3)c(=O)c3c(C)c(C)sc32)c1 -7.06%
CCc1ccc(CN(Cc2ccco2)C(=O)c2ccccc2Cl)cc1 -5.64%
CCc1ccccc1NC(=O)Nc1nnc(N2CCCC2)s1 -21.5%
COc1ccc(CCNC(=O)c2nn(-c3ccc(C)cc3)c(=O)c3c2c2ccccc2n3C)cc1OC -4.07%
O=C(CC1N=C2c3ccccc3N=C(SCC(=O)Nc3cccc(C(F)(F)F)c3)N2C1=O)NCc1cccs1 (configuration not stated) -18.2%
Cc1ccc(C)c(N2CCN(S(=O)(=O)c3ccc4oc(=O)c5ncn(C)c5c4c3)CC2)c1 -12.2%
Cc1ccc(C(=O)COC(=O)c2cc(-c3ccccc3)nc3ccccc23)cc1C 6.13%
COc1cc(NC(=O)Cn2c(=O)n(Cc3ccccc3OC)c(=O)c3cccnc32)cc(OC)c1 2.59%
CCCNC(=O)c1ccc2c(c1)N(Cc1cccc(C)c1)C(=O)c1ccccc1S2 5.42%
Cc1ccc(S(=O)(=O)c2nnn3c2nc(NCc2ccc(F)cc2)c2sccc23)cc1 -1.79%
COc1ccc(NC(=O)CCN2CCN(c3cccc(Cl)c3)CC2)cc1 -11.1%
COc1cccc(CNC(=O)c2c(C)nn(-c3cccc(C)c3)c2-n2cccc2)c1 2.18%
O=C(NCCCc1ccccc1)c1nn(-c2ccccc2F)nc1CO -2.23%
CCN(CC)CCNC(=O)c1cc(S(C)(=O)=O)ccc1OC -18.2%
O=C(NC(=O)c1cccc(F)c1)Nc1ccc(-c2cc(C(F)(F)F)nn2-c2ccccc2)cc1 -22.4%
CC(=O)c1ccc(NC(=O)C2CCC(CNS(=O)(=O)c3ccc(Br)s3)CC2)cc1 (configuration not stated) -12.7%
Cc1nc(-c2ccc(C)c(N3CCN(C(=O)Nc4ccccc4C(F)(F)F)CC3)c2)no1 -6.4%
O=C(NCCc1ccccc1)c1ccc(CSc2nc3cccnc3n2Cc2ccc(F)cc2)cc1 -5.5%
COC(=O)c1ccc(NC(=O)C2(S(=O)(=O)c3ccc(C)cc3)CC2)cc1 -16.2%
Cc1ccc(C(=O)Nc2nnc(S(=O)(=O)N3CCOCC3)s2)cc1 -18.2%
O=C(NCc1ccc(F)cc1)C1CCN(C(=O)c2ccc(-n3ccc4ccccc43)s2)CC1 -14.1%
Cc1ccc(CN2CCCn3nc(C(=O)NCCC(C)C)cc3C2=O)cc1 -1.75%
COC(=O)c1sc(-c2ccccc2)cc1NC(=O)c1cccc(F)c1 -14.3%
COc1ccc(CNCCSc2nnnn2-c2ccccc2)cc1 -4.69%
COc1ccccc1-n1cc(-c2ccc(C)cc2)nc1S(=O)(=O)CC(=O)Nc1ccccc1C(F)(F)F 6.56%
COc1ccc(CC(=O)Nc2ccc3nc(Nc4cccc(Cl)c4)cc(C)c3c2)cc1OC -12.2%
Cc1ccc(S(=O)(=O)N2CCC(Oc3ccc(-n4cnnn4)cc3)CC2)cc1 -8.83%
CCn1cc(S(=O)(=O)c2cc(C)cc(C)c2)c(=O)c2cc(F)c(N3CCOCC3)cc21 -18.4%
O=C(CCCN1CC=C(n2c(=O)[nH]c3ccccc32)CC1)c1ccc(F)cc1 -16.2%
CCOc1ccccc1-c1nc(-c2ccc(-c3ccccc3)nc2OCC)no1 -17.7%
COc1ccccc1NC(=O)CSc1nnc(-c2cccc(Cl)c2)o1 -16.3%
COc1cc(OC)c(NC(c2nnc(-c3ccccc3)o2)c2ccc(F)cc2Cl)cc1Cl (configuration not stated) -12.9%
COc1ccc2nc(N(Cc3cccnc3)C(=O)CCc3ccccc3)sc2c1 -10.1%
COc1ccccc1Nc1c2c(nc3ccc(NC(=O)/C=C/c4cccc(OC)c4OC)cc13)CCCC2 -27.3%
